Patent US10576059B2, “Substituted phenylpyrrolecarboxamides with therapeutic activity in HIV” (New York Blood Center, Inc., priority 2014, dated 2020)

Biological target: HIV (pNL4-3) heterodimeric (p66/p51) Reverse Transcriptase (Human immunodeficiency virus type 1 group M subtype B, UniProt P12497)
Assay: HIV-1 Reverse Transcriptase (RT) assay
Experimental: Purified recombinant HIV (pNL4-3) heterodimeric (p66/p51) Reverse Transcriptase (RT) was purchased from a commercially available source. The assay was performed in 96-well filter plate, where RT activity was determined by the incorporation of radiolabeled deoxyribonucleotides into the newly synthesized DNA strand. […] Briefly, the reaction was carried out in a volume of 50 μl containing 50 mM Tris HCl, pH 7.8, 50 mM KCl, 5 mM MgCl2, 1 mM DTT, 50 μM each of dATP, dCTP, dGTP, 50 nM dTTP, 1 μCi of [^3H] dTTP (70-90 Ci/mM) and 5 nM template/primer. The reaction was initiated by the addition of 10 nM RT.
Compounds were diluted in 100% DMSO to 40 mM. Each compound was diluted in the appropriate reaction buffer for the biochemical assay per protocol. Serially diluted test compounds were added to the reaction followed by the addition of RT. The reaction mixture was incubated at 37° C. for 1 h, and then quenched by the addition of ice-cold trichloroacetic acid (TCA) to the final concentration of 10%. The plate was incubated at 4° C. for 1 h to precipitate the synthesized DNA, then rinsed 3-times with 10% TCA and 1 time with 70% ethanol. After addition of 25 μl scintillation fluid to completely dried wells, radioactivity was counted by MicroBeta scintillation counter (PerkinElmer). The reduction of radioactivity represents the potency of compound inhibition. (See Table 3)

Cc1nc(C(CN)NC(=O)c2ccc(-c3ccc(Cl)cc3)[nH]2)sc1CO (single isomer, unassigned) [Compound 39]
IC50: 2560 nM
